About 200 (0.44%) of roughly 45,000 compounds were called active. Inconclusive results (about 7%) are left out. Calls follow the shape of the dose curve; as a rule, active = well fitted activation curve with a large enough effect; inconclusive = small, poorly fitted or top-dose-only effect; inactive = no such curve, though single readings can be large or run the other way. This is one part of the list.
assay: qHTS of TDP-43 Inhibitors: NCGC Sytravon Library Screen; conditions: yeast TDP-43 toxicity rescue, BacTiter-Glo growth, 24 h; series mostly up to 46.1 µM; growth rescue (activation): at the top concentration; also: 0% is about no effect; nearly all actives have a fitted effect of over 55% in size
In short: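 TDP-43-expressing yeast, pregrown in raffinose, seeded at OD600 0.02 in galactose medium with compound for 24 hr at 30 deg C. Growth read by BacTiter-Glo luminescence, so rescue of toxicity appears as activation.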

SMILES | growth rescue (activation)
COCCn1c(SCC(=O)Nc2ccc(F)cc2)nc2c(oc3ccccc32)c1=O | inactive: 4.99%
CC(=O)[C@H]1CCC2C3CC=C4C[C@@H](O)CC[C@]4(C)C3CC[C@@]21C (some centres not stated) | inactive: 6.07%
CN(C)c1cc(NC(=O)CNC(C)(C)CC(C)(C)C)c2ccccc2n1 | inactive: -4.63%
COc1ccc(CCNc2cc(C)nc3c(-c4ccccc4)cnn23)cc1OC | inactive: 9.45%
CC(C)N1C(=O)CSC1c1ccc(Br)cc1 (configuration not stated) | inactive: 5.36%
COc1ccc(/C=C/C(=O)Nc2cccc(S(=O)(=O)N3CCCC3)c2)cc1OC | inactive: 2.96%
COc1ccc(N2CC(C(=O)N/N=C/c3ccccc3)CC2=O)cc1 (configuration not stated) | inactive: -5.49%
COCCn1c(SCC(=O)NC(C)c2ccc(F)cc2)nc2ccccc21 (configuration not stated) | inactive: -54.1%
O=C(NCCc1ccccc1)C1CCN(c2ncccn2)CC1 | inactive: 3.45%
CN1CCN(S(=O)(=O)c2cccc(C(=O)Nc3cc(C(N)=O)cc(C(N)=O)c3)c2)CC1 | inactive: -0.69%
CC1CC1C(=O)OCC(=O)NC(=O)c1ccc(C(C)(C)C)cc1 (configuration not stated) | inactive: -5.14%
O=[N+]([O-])c1ccccc1SNc1ccc(Br)cn1 | inactive: 6.94%
COc1ccccc1NC(=S)NNC(=O)c1ccncc1 | inactive: -0.968%
COc1cccc(N2CCN(C(=O)CC(NC(=O)c3ccccc3)c3ccccc3)CC2)c1 (configuration not stated) | inactive: 23.6%
CSc1ccccc1C(=O)C1CCCN(C(=O)c2csnn2)C1 (configuration not stated) | inactive: 9.2%
O=C(CN1CCCCC1)N1CCN(S(=O)(=O)c2ccccc2)C1 | inactive: -10.5%
OC[C@@H]1CN(Cc2ccccc2)C[C@H](n2cnc3c(N4CCCC4)ncnc32)O1 | inactive: 0.431%
Cc1ccc2nc(NC(=O)C3CC3C)sc2c1 (configuration not stated) | inactive: 19.3%
Cc1[nH]nc(NNC(=O)c2ccccc2)c1[N+](=O)[O-] | inactive: 3.17%
NC(=S)N/N=C1\CC(c2ccc3c(c2)OCCO3)Oc2ccc(F)cc21 (configuration not stated) | inactive: 9.2%
CCCCC(=O)NC(c1ccc(N(C)C)cc1)c1ccc2cccnc2c1O (configuration not stated) | inactive: 25.5%
CC(C)C(OC(=O)c1nsc(Cl)c1Cl)C(=O)NC1CCCCC1 (configuration not stated) | inactive: 7.95%
O=C(Nc1ccc(-c2nnc3n2CCCCC3)cc1)c1cnccn1 | inactive: 1.53%
CC(C)(C)C(=O)Nc1ccc(Cc2ccncc2)cc1 | inactive: -8.32%

SMILES | growth rescue (activation)
CC(=O)Nc1ccc(C(=O)OCCc2ccccc2)cc1 | inactive: -9.39%
CC(C)(C)NC(=S)NCc1ccc2c(c1)OCO2 | inactive: 2.72%
O=C(CCC1CCCN(C(=O)c2cccs2)C1)N1CCN(c2ccccn2)CC1 (configuration not stated) | inactive: 9.87%
CC(C)Nc1nc(-c2ccccc2CO)c2sccc2n1 | inactive: 23.9%
Cc1cnc(C(=O)OCC(=O)NC2CCCCCCC2)cn1 | inactive: 10.6%
COc1cccc2cc(C(=O)N(C)C3CCN(C)CC3)c(=O)oc12 | inactive: -5.95%
O=C(CCNC(=O)c1ccc([N+](=O)[O-])cc1)NCCc1ccccc1 | inactive: 1.61%
CN1CC(C(=O)O)Cc2c1ccc1ccccc21 (configuration not stated) | inactive: -41.3%
O=C(COC(=O)/C=C/c1ccc([N+](=O)[O-])cc1)NC(c1ccccc1)c1ccccc1 | inactive: 19.2%
COc1ccc(NC(=S)NC23CN4CN(CN(C4)C2)C3)cc1 | inactive: 11.1%
O=C(NCc1ccccn1)C(=O)N/N=C/c1ccccc1O | inactive: -6.71%
COc1ccc(NC(=O)c2cccc(N3C(=O)C4C5C=CC(C6CC56)C4C3=O)c2)cc1 (configuration not stated) | inactive: 17.7%
COc1cc(NC(=O)C/C(C)=N/NC(=O)C(OC)c2ccccc2)c(OC)cc1Cl (configuration not stated) | inactive: -6.84%
CCOc1ccccc1NC(=O)N1CCCC1C(=O)NCc1ccco1 (configuration not stated) | inactive: 0.221%
Cc1cc(=O)oc2cc(NC(=S)NNC(=O)c3c(Cl)cnn3C)ccc12 | inactive: 4.13%
Cn1c(N)c(C(=O)COC(=O)c2cccc(S(=O)(=O)N3CCCCC3)c2)c(=O)n(C)c1=O | inactive: -3.61%
Cc1ccc(CNC(=S)Nc2cc(C(=O)O)ccc2C)cc1 | inactive: -3.1%
COC(=O)c1ccc(NC(=S)NCCc2ccc(OC)cc2)cc1 | inactive: -10.1%
COc1ccc(C(C)(C)C)cc1NC(=O)c1ccc[n+]([O-])c1 | inactive: 12.5%
COc1cc2c(cc1OC)CC(C(=O)NCc1ccccc1)NC2 (configuration not stated) | inactive: 8.96%
CC(C)N=C1NN=C(c2cccs2)C(CC(=O)O)S1 (configuration not stated) | inactive: 10.1%
Cc1cccc(NC(=O)CSc2ncnc3sc(C)cc23)c1 | inactive: -0.213%
Cc1ccccc1NS(=O)(=O)c1ccc(C(=O)OCC(=O)NCC(C)C)cc1 | inactive: 18.6%
CCN(CC)S(=O)(=O)c1ccc(Cl)c(NC(C)=O)c1 | inactive: -6.5%

SMILES | growth rescue (activation)
COCc1cc(CN2CCCC(CNC(=O)c3ccc(F)cc3)C2)ccc1OC (configuration not stated) | inactive: 8.56%
CCc1c(C)nc(N)c(C#N)c1-c1ccccc1 | inactive: 6.79%
CCc1sc(C(=O)Nc2ccc(N3CCOCC3)cc2)cc1C | inactive: 25.3%
CCOc1ccc(-c2noc(-c3cccnc3)n2)cc1OC | inactive: 22.1%
CC1(C(=O)Nc2cccc(C#N)c2)CCN1C(=O)CCc1ccccc1 (configuration not stated) | inactive: 18%
Cc1nn(C)cc1/C=C/C(=O)c1ccc(O)cc1 | inactive: 8.1%
O=C(NCC(=O)N(CCN1CCOCC1)C(C(=O)NC1CCCC1)c1cccnc1)c1cccs1 (configuration not stated) | inactive: 14.6%
Cc1nn(Cc2c(Cl)cccc2Cl)c(Cl)c1/C=N/NC(=O)c1cccnc1 | inactive: 3.54%
COc1ccc(-c2nc(NC3=NCCCCC3)sc2C)cc1 | inactive: -7.02%
O=Cc1ccccc1Oc1nc(N2CCOCC2)nc(N2CCOCC2)n1 | inactive: -4.39%
CC(=O)Nc1cnc(/C=C\CCCO)cn1 | inactive: 1.97%
COc1ccc2[nH]c(C(=O)N3CCNCC3)cc2c1OC | inactive: -2.04%
CC(C(=O)NCc1ccccn1)c1ccc([N+](=O)[O-])cc1 (configuration not stated) | inactive: 2.55%
Cc1cc(C)c2[nH]c(O)c(N=Nc3ccc(C(=O)O)cc3)c2c1 | inactive: -7.62%
COc1ccccc1-n1nnnc1SCC(=O)NC1CCCCC1 | inactive: 10.2%
CSc1ccc(/C=N/N2CCN(Cc3ccccc3)CC2)cc1 | inactive: 1.12%
CC1CN(S(=O)(=O)c2ccccc2)CN1C(=O)N1CCOCC1 (configuration not stated) | inactive: 4.77%
COc1cc(/C=C/C(=O)OCC(=O)NC(=O)NC(C)C)cc(OC)c1OC | inactive: -5.44%
Cc1cccc(C)c1NC(=O)CCn1cnc2ccccc2c1=O | inactive: 4.13%
COc1ccc(CNC(c2ccccc2)c2ccc(Cl)cc2)cc1 (configuration not stated) | inactive: 7.12%
CC(=O)C1CCCN(C(=O)c2ccc3nc(Cc4cccc(Cl)c4)oc3c2)C1 (configuration not stated) | inactive: 14.7%
O=C(COc1ccc(C(=O)c2ccccc2)cc1)Nc1cccnc1 | inactive: 5.92%
Cc1ccc(C)c(Cn2ncc3ccccc32)c1 | inactive: 26.6%
COc1ccc(NC(=O)C(c2ccccc2)N(C)C(=O)c2ccc(=O)[nH]c2)cc1 (configuration not stated) | inactive: 16.9%

Source: PubChem BioAssay AID1347073 (National Center for Advancing Translational Sciences (NCATS), 2019)
